Reference: PubChem BioAssay AID488969 (Vanderbilt High Throughput Screening Facility, 2010)
The full ranking holds about 110,000 compounds; the median of “z-score” is about -0.1, and the highest 2% start at about 2. This is one part of the list.

biological target: Metabotropic glutamate receptor 8 (Rattus norvegicus) (UniProt P70579); test: mGluR8 Gi/Go-coupled signaling modulation – cell-based, rat, thallium flux, HTS, primary screen (AID 488969); conditions: HEK293 rat mGluR8, GIRK (G protein-gated inwardly rectifying potassium channel) thallium flux, FluoZin2; at 10 µM; stronger effect = higher value; submaximal glutamate (EC20) added with thallium
Sequence of UniProt P70579 (P70579 whole entry, looked up): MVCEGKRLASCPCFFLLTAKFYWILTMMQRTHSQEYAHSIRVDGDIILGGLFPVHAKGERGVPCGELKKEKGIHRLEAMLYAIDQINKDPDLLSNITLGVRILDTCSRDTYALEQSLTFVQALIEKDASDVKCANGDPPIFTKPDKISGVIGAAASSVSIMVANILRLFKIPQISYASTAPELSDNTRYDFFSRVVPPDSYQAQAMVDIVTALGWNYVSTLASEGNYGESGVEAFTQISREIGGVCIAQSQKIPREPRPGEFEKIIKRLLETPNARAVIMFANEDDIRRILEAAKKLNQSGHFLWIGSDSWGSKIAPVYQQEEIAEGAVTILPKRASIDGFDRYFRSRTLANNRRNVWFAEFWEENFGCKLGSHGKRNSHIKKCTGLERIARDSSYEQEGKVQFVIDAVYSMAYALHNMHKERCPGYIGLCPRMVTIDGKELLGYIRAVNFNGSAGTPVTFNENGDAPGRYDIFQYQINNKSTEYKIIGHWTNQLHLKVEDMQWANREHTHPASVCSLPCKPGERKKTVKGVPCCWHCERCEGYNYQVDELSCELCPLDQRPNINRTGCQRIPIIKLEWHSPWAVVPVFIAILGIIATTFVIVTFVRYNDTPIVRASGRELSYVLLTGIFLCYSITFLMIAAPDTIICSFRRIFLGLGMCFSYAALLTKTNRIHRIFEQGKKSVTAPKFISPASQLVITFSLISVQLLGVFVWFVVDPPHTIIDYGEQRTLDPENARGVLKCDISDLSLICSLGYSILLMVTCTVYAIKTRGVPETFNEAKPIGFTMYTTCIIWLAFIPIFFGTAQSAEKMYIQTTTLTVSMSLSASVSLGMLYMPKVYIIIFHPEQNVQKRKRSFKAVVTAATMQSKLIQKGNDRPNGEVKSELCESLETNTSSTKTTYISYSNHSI

Structure (SMILES) | z-score
c1coc(-c2nc3c([nH]2)CCc2nonc2-3)c1 | -0.161
CCCCC(c1nnnn1CS(=O)(=O)c1ccc(C)cc1)N1CCN(c2ccccc2)CC1 (centres undefined) | 0.13
Cc1ccc(F)cc1NC(=S)NCCc1ccccc1 | 0.631
COc1cccc(SCc2noc(C(=O)NC(C)C)c2C(=O)O)c1 | 0.165
COc1ccc2c(c1)-c1nc(/N=C/c3ccccc3O)sc1CC2 | 0.0977
COC(=O)C1=C(O)/C(=C\c2ccc(CNS(=O)(=O)c3ccc(Cl)cc3)o2)N=C1C | 0.0108
Cc1ccc(NC(=O)CSc2nnc(CSc3nc(C)cc(C)n3)n2Cc2ccco2)c(C)c1 | -0.976
CC(C)(C)n1nc2c(c1NC(=O)c1ccc(S(=O)(=O)N3CCCC3)cc1)CSC2 | 0.622
COc1cc2c(cc1NC(=O)C(C)N1CCN(S(=O)(=O)c3ccc(C)c(C)c3)CC1)oc1ccccc12 (centres undefined) | 0.0628
O=C(Cn1cc2c(n1)CCCC2)NCCCN1CCN(Cc2ccccc2)CC1 | -0.235
O=S(=O)(NCCNS(=O)(=O)c1cccs1)c1cccs1 | -0.0845
O=C(Nc1ccc(C(=O)N2CCCC2)cc1)c1ccc2c(c1)OCO2 | -0.179
CC(C)(C)NC(=O)CSC(=Nc1cccc(F)c1)NC#N | -0.0036
O=C(Cn1cc(C(F)(F)F)ccc1=O)N1CCN(S(=O)(=O)c2ccc(Cl)cc2)CC1 | 0.613
Cc1cc2cc3c(cc2nc1SCC(=O)OC(C)C)OCO3 | -0.048
CCCCN(CCCC)CC1OCc2ccccc2CO1 | -0.236
CN1c2ccccc2C(C)(C)C12C=Nc1c(cc(N3CCOCC3)c3ccccc13)O2 (centres undefined) | -0.341
COc1ccc(CN(C)C(c2ccccc2)c2nnnn2-c2ccccc2C)c(OC)c1C (centres undefined) | 0.0742
CCOC(=O)C1CCN(C(=O)Nc2ccc(OC)c(OC)c2)CC1 | -0.541
CCOC(=O)C(=O)Nc1ccc(F)cc1 | -1.25
Cc1cccc(OCCCSc2nc3ccccc3[nH]2)c1 | 0.357
COc1ccc2c(c1)cc1n2CCN=C1N | 0.0614

Structure (SMILES) | z-score
O=[N+]([O-])c1ccc2nc(SCc3cn4ccccc4n3)[nH]c2c1 | 0.0122
COc1ccccc1CNc1n[nH]c(NCc2ccccc2OC)n1 | -0.0655
O=C1Nc2ccc(Br)cc2C1=Nc1ccc(-c2nnc3n2CCCCC3)cc1 | 0.0931
CC(=O)c1ccc(OCC(C)C)c(CN2CCCCC2)c1 | 0.157
O=C(/C=C\c1ccco1)Nc1cc([N+](=O)[O-])ccc1F | -0.392
O=C(O)c1ccc(NC2=C(N3CCOCC3)C(=O)c3ccccc3C2=O)cc1 | 0.558
Cc1ccc(CN2CCS(=O)(=O)CC2)cc1 | -0.0985
c1cncc(-c2csc(NCc3ccco3)n2)c1 | -0.505
O=C(CCCOc1ccccc1)NC1CCCc2ccccc21 (centres undefined) | -0.271
Cc1cc[n+](CC(=O)c2ccc3c(c2)OCCO3)cc1 | -0.107
CCC(=O)N1CCc2cc(Br)cc(S(=O)(=O)CCC(=O)NCc3ccco3)c21 | -0.0579
CCc1nnc(SCC(=O)Nc2ccc3c(c2)OCO3)o1 | 1.2
CC(C)c1ccc(NC(=O)CCN2C(=O)c3ccc([N+](=O)[O-])cc3C2=O)cc1 | -0.171
CCNc1nc(N)nc(Oc2ccc(C(=O)OC)cc2)n1 | -0.158
C[C@@H](Nc1nc(-c2ccccc2)nc2c1oc1ccccc12)C(=O)O | -0.8
CC(C)[C@@H](C(=O)OCC(=O)Nc1ccc2c(c1)OCO2)N1C(=O)c2ccccc2C1=O | -0.283
COc1ccc(C2=NN(C(=O)c3cccnc3)C(c3ccccc3)C2)cc1 (centres undefined) | -0.497
CNC(=O)C(=O)NCC1OCCCN1S(=O)(=O)c1cccs1 (centres undefined) | -0.354
COc1ccc(C(=O)Cn2c(Br)nc3c2c(=O)n(C)c(=O)n3C)cc1 | -0.191
Cc1ccc(S(=O)(=O)n2c3ccc(Cl)cc3c3nc(C)sc32)cc1 | -0.333
COc1ccc(C)cc1NC(=O)C(OC(=O)c1ccc([N+](=O)[O-])o1)c1ccccc1 (centres undefined) | -0.35
CSC(=S)N/N=C/c1c[nH]c2ccccc12 | 1

Structure (SMILES) | z-score
COc1ccc(N(C)C(=S)Nc2ccc3nc(C)c(C)nc3c2)cc1 | -0.172
Cn1c2c(c(=O)n(C)c1=O)[C@@H]1c3c(ccc4ccccc34)OC[C@@H]1CO2 | -0.213
COc1ccc2c(c1)CC/C(=C\C=C\c1ccccc1)C2=O | -0.177
COc1ccc(CNC(=O)C2CCCN(S(=O)(=O)c3cnc[nH]3)C2)cc1 (centres undefined) | -0.309
O=C(NCCCN1CCCC1=O)c1ccc2c(c1)NC(=O)C(N1CCOCC1)S2 (centres undefined) | -0.0714
COc1ccc(C)cc1-n1nnnc1SCC(=O)Nc1cccnc1Cl | -0.0944
COc1cc2cc(C(=O)O)[nH]c2c(OC)c1OC | 0.221
c1ccc2c(c1)oc1c(N3CCN(Cc4ccc5c(c4)OCO5)CC3)ncnc12 | 0.968
COCC(C)n1c(C)cc(C(=O)CSc2nc3ccccc3c(=O)[nH]2)c1C (centres undefined) | -0.0493
CCCC(=O)N1c2ccccc2NC2=C(C(=O)CCC2)C1c1ccc(F)cc1 (centres undefined) | 0.527
Cc1cc(=O)[nH]c(SCc2nnnn2-c2ccc(Cl)cc2)n1 | 0.00954
CCn1c(SCc2nc3ccccc3[nH]2)nnc1-c1ccncc1 | -0.167
COCc1cc(=O)[nH]c2cc(NC(=O)C3CC3)c(C)cc12 | 0.0867
COc1cccc(NC(=O)CN2CCN(S(=O)(=O)c3ccc(F)cc3)CC2)c1 | -0.138
Cc1ccc2c(c1)-c1nc3ccccc3cc1C2=NC1CCCCC1 | -0.156
CCN(CC)C(=O)CSCc1cnn(-c2ccccc2)c1-n1cccc1 | 0.216
COc1cc(C(=O)OCC(=O)c2cc(C)n(C)c2C)cc(NC(=O)c2ccco2)c1OC | -1
Cc1nc2ccc(C(=O)OCc3ccccc3Br)cc2nc1C | -0.339
Cc1ccc(NC(=O)CSc2nnc([C@@H]3CCCN3C(=O)OC(C)(C)C)o2)c(C)c1 | -0.259
O=[N+]([O-])c1cc(C(F)(F)F)ccc1Sc1ccc2ccccc2n1 | -0.0338
COc1ccc(-n2c(N)c(C(=O)NCC3CCCO3)c3nc4ccccc4nc32)c(OC)c1 (centres undefined) | -1.74
N#CC(c1ccccn1)(c1ncc(C(F)(F)F)cc1Cl)N1CCOCC1 (centres undefined) | -0.113

Structure (SMILES) | z-score
CCN1CCC2(CC1)C(C#N)=C(N)Oc1c2sc2nc(C)cc(C)c12 | -1
Cc1ccc(S(=O)(=O)N[C@H](C(=O)Oc2ccc3c(C(F)(F)F)cc(=O)oc3c2)c2ccccc2)cc1 | -0.201
O=C(O)COc1ccc(S(=O)(=O)NCCc2ccccc2)cc1 | -0.144
COc1cc(OC)c(C(=O)Nc2cccc(C(C)=O)c2)cc1OC | 0.271
Cc1cc(SCC(=O)NN=C2CCN(C(C)C)CC2)c(C)cc1Br | -0.257
Cc1onc(-c2ccccc2)c1C(=O)N1CCCSC1=Nc1ccccc1 | -0.384
O=C(NCc1ccc2c(c1)OCO2)C1CCCN1C(=O)Nc1cccc(Cl)c1 (centres undefined) | -0.268
CC1(C)CC(=O)C(C(c2ccncc2)C2C(=O)CC(C)(C)CC2=O)C(=O)C1 | -0.21
CN1CCN(c2nc(-c3ccncc3)nc3ccccc23)CC1 | 0.0796
CC(C)(C)NC(=O)C(=O)N/N=C/c1ccc(Br)cc1 | -0.109
Brc1cc2c(cc1/C=N/Nc1nc(N3CCOCC3)nc(N3CCOCC3)n1)OCO2 | -0.639
CSc1cccc(NC(=O)CSc2ccc(Cl)cc2)c1 | 0.0929
Cc1cccc(C)c1NC(=O)C(NC=O)c1ccccc1Cl (centres undefined) | 0.171
COc1ccc(OCC(=O)Nc2ccccc2C(=O)N2CCCC2)cc1 | -0.288
Cc1cc(-c2c(C)[nH]n(-c3ccc(Cl)cc3)c2=O)n(-c2ccccc2)n1 | 0.122
CC1CCc2nn(CC(=O)NCCN3CCOCC3)cc2C1 (centres undefined) | 0.4
O=[N+]([O-])c1ccc2c(c1)oc1ccccc12 | 0.356
CCN(CC)CCN1C(=O)C(=O)/C(=C(/O)c2ccc(C)cc2)C1c1ccncc1 (centres undefined) | 0.189
CS(=O)(=O)N1CCN(c2ccc(C(=O)NC3C4CC5CC(C4)CC3C5)cc2[N+](=O)[O-])CC1 (centres undefined) | -0.165
Cc1ccc(S(=O)(=O)/N=C2/C=C(Sc3ncn[nH]3)C(=O)c3ccccc32)c(C)c1 | -0.256
CCCNC1=C(N(C(C)=O)c2cccc(F)c2)C(=O)c2ccccc2C1=O | -1.55
Cc1ccc(N=c2ssnc2Cl)cc1 | 0.0301

Structure (SMILES) | z-score
CC1CN(C(=O)C2(C)CC2(Br)Br)CC(C)O1 (centres undefined) | -0.00911
Cc1c(CNC2CCC(C)CC2)c(C(=O)O)c(C)n1Cc1ccccc1 (centres undefined) | -0.344
O=C(O)c1cc(NS(=O)(=O)c2ccc(N3CCCCC3)c([N+](=O)[O-])c2)cc(C(=O)O)c1 | -0.105
CCOCCN1CCN(c2c(C)c(C)nc3cc(-c4cc(OC)cc(OC)c4)nn23)CC1 | -0.826
CN(C)/C=C1\C(=O)N(c2ccc(Cl)cc2)CS1(=O)=O | -0.082
CC1CCN(C(=O)CN2C(=O)C(=O)c3ccccc32)CC1 | 1.18
CCN(CC)CC(C)OC(=O)c1cc(OC)c(OC)c(OC)c1 (centres undefined) | -0.125
CCOC(=O)c1sc(NC(=O)c2cccnc2)c(C#N)c1C | -0.375
CN(C)C(CNC(=S)Nc1ccccc1)c1cccnc1 (centres undefined) | -0.114
CC(C)(C)OC(=O)NCCc1nnc(SCc2ccc(Cl)cc2)o1 | -0.444
O=S(=O)(Nc1nc2ccccc2[nH]1)c1ccc2ccccc2c1 | -0.228
CCOC(=O)c1[nH]c(C)c(C(=O)c2cc(F)ccc2F)c1C | -0.561
COc1cc(NC(=O)CS(=O)(=O)c2ccccc2)cc(OC)c1OC | 1.2
O=C(Nc1nccs1)C1CCCN1S(=O)(=O)c1ccc(F)cc1 (centres undefined) | -0.318
CCC(C)C1NC(=S)N(Cc2ccccc2)C1=O (centres undefined) | -0.14
Cc1cc(C)c(S(=O)(=O)NCCC2CCCN2C)c(C)c1 (centres undefined) | -0.112
O=c1ncn(-c2ccc(F)cc2)c2ncccc12 | -0.146
O=C(O)c1ccc(COc2ccccc2[N+](=O)[O-])o1 | -0.128
Cc1snc(S(=O)(=O)/C(C#N)=N/Nc2ccc(C(F)(F)F)cc2)c1C#N | -1.22
CCOC(=O)c1ccc(NC(=O)C(=O)NCc2ccncc2)cc1 | 0.121
CC1CCN(C(=O)COC(=O)c2cc(Cl)cc(Cl)c2N)CC1 | -0.0469
